Results as given in the supplement of paper PMC3334620.
In all, about 33,000 sequences were measured (“E-score (-0.5 to 0.5)”: median about -0.04, highest 2% from about 0.36 on). This is one part of the list.

The sequences below were run against T1, Hmlalpha2 (UniProt P0CY09) (assay: PBM E-score (8-mer binding enrichment) (E-score (-0.5 to 0.5)); higher = stronger / more preferred TF binding; most listed sequences are background and not binding sites). Details: protein concentration: 200 nM; construct: GST-full length.
T1 sequence: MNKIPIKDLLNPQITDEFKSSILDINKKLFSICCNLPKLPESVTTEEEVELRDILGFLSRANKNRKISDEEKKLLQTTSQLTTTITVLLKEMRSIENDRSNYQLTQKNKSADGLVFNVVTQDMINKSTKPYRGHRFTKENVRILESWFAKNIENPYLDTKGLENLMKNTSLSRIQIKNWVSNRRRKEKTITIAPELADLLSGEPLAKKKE
Method in brief: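 Yeast transcription factors carrying a GST tag, as full-length proteins or DNA-binding domains, were produced by PURExpress in vitro transcription/translation. About 100-200 nM protein was applied to universal all-10-mer Agilent arrays, double-stranded by primer extension on fresh or once-stripped slides. Bound protein was detected with fluorescent anti-GST, and scans were normalised with masliner. The Universal PBM Analysis Suite gave each ungapped eight-base word, pooled with its reverse complement, an E-score, a modified Wilcoxon-Mann-Whitney statistic.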

Sequence	PBM E-score
ACTCAAGG	-0.0982
GTACAAAA	0.307
TACCCCGA	-0.114
ATTTCACC	0.0687
CAACGTTC	-0.00889
ATATCCCA	-0.0355
CGTCAATC	0.0846
CAGTTGTA	0.138
AGAAGTAG	-0.0478
ATTTTGGC	0.0639
ACTGGTTA	0.103
ACTTTAAC	0.188
ACAGGCCA	-0.0294
ACAAGGGC	0.133
CCCTAAGG	-0.233
AGTGTAAG	0.116
AGCGGAGA	-0.216
GATTGCGC	-0.0304
TCAGTCAA	0.141
CAGGGCGC	-0.0958
ACAGCCAA	-0.0915
GGCGACAA	-0.127
CGCGGAAC	-0.0278
GGGGACCC	-0.369
AGGCGACG	-0.14

Sequence	PBM E-score
AATCTCCT	-0.124
CCCGTGAC	-0.226
ACTATATC	0.0968
GTCGGATA	-0.0106
CATAGCTA	-0.138
CGAGGCCA	-0.087
ATGGAGAG	-0.115
ACAACAGG	0.155
GATTTTAA	0.188
ATGCAAAT	0.193
ATGAGTGC	-0.172
CTAAAAAA	0.118
AACCATCA	0.0303
ATTCATAC	0.147
GCTCTACA	0.288
AGTACTAC	0.237
AGAGAAGC	-0.0779
GGCTGGCA	-0.235
AAAATCAG	0.108
CAAGGTAA	0.182
CTTATCAA	0.0644
CTCTTATC	0.05
ATGGATTG	0.0786
CATACCGG	-0.154
ATATTCAT	0.202

Sequence	PBM E-score
ACGATTGG	0.0327
CTGGTGTA	0.0516
CCATCTCG	-0.35
AGCGGTTA	-0.103
ATGCCTTC	-0.151
AGGGAGCG	-0.31
AAAGATCA	0.158
ATCAAGGA	-0.0568
ACCGACCA	0.0128
ACACCTAC	0.039
CCTTTCCC	-0.176
ATGTAAAA	0.474
ACCGTCTC	-0.0522
CCGTTGAC	-0.133
GCAGACTA	-0.0219
CATGTTCG	0.259
CCGAAAGC	-0.185
TAACGTGA	0.208
GGGATGGA	-0.132
CCGTTTCC	-0.222
CGTCCCTC	-0.137
AAGTGGCT	-0.181
CAAGGCCG	-0.131
AAGTAGTC	0.0858
CGCTGCAG	-0.0676

Sequence	PBM E-score
TCAGAGGA	-0.307
GGCATAGA	-0.107
AGCCACTC	-0.2
GATGTTAC	0.304
CGAAAAAA	0.161
ATCCCAGC	-0.138
ACGCTGCG	-0.0283
CTTACCTC	-0.262
AGTCAAGA	-0.142
AAGGTGAA	-0.132
AACCGTAG	-0.25
AAAATTTT	-0.109
ATTTGCTA	0.0125
GTAGAAAC	0.307
GGACTTAA	-0.0169
AAAGTTCG	0.0197
CGAACCAA	-0.0324
AAAATCAC	0.145
CCCGCGAG	-0.168
CACACTGC	-0.12
CAGTTCCA	-0.0481
AGTCCTAT	-0.0214
CCTCAACA	0.302
TCCCAACA	0.106
CGCTCAAG	-0.156

Sequence	PBM E-score
CGAAGCAA	0.133
ACCCAGTC	-0.214
CTTAAAGC	-0.115
ATCCTGAG	-0.119
CCACTGGA	-0.211
ATGTGCCA	0.0579
CCTATCCC	-0.191
AATTACAG	0.307
AGACGCCC	-0.281
GCGCCACA	-0.0137
AAATTTTA	0.223
CCAAAATC	-0.0034
AACGTGAT	0.112
CCATGGCG	-0.0225
CCGATTGA	0.0466
AAAATGCA	-0.126
AACTCAGA	0.139
CCTTTCCG	-0.212
CTTCACGC	0.169
CACAGTGC	-0.0482
ATCCACTA	0.012
CTCCCGAA	-0.201
AACGTATT	0.265
GGGGAGAC	-0.267
AGCAGTAT	-0.129

Sequence	PBM E-score
CAACATGA	0.449
CAGCTAAA	0.0164
GCCTTTCC	-0.228
GCATATCA	0.0306
AAACCAAT	0.0981
GCGTTAAA	0.366
GGAAACCC	-0.159
CCTTTTAA	0.027
CTGCGATA	-0.0208
GACACATC	0.00043
AAGAGCCA	-0.0558
GACACTCC	-0.082
CCAGGAGC	-0.385
AAGAGACC	-0.0122
GGGATGTA	0.328
CTCATGGA	-0.142
ATCCAATG	-0.0262
ACGACCGA	0.0153
GTATTGAC	0.138
GGGGAAAC	-0.00316
GTTTCTCA	-0.0506
TAGAGGCA	-0.118
AAGCTGGA	-0.128
CACCATCA	-0.178
AACTGGTG	-0.176

Sequence	PBM E-score
CAAGCCCA	-0.0127
CAATCGAA	-0.054
GATATAGC	-0.0529
AGATACGG	-0.045
TAAAGGGA	-0.0824
AAGTCCGA	-0.145
GTCTAGGA	-0.0605
ACCTGTGA	0.166
AGGTGTGG	-0.306
GTATTTTA	0.319
AGATGGCG	-0.115
CACCATAA	-0.106
TACCAGCA	-0.0851
ATCATTCG	-0.0837
GGGAGCAC	-0.332
AGTAGCAG	-0.146
ATCGCGAG	-0.0629
GATTGTAC	0.133
CCAATACA	0.313
GAAGTTAC	0.13
TCTGAGAA	-0.0505
ACTTATAA	0.109
ATAAGTCA	0.0549
CAAGCCCG	-0.183
GACGGCCA	-0.215

Sequence	PBM E-score
AAACGTGT	0.375
ATAAAGAG	-0.0356
CACTGATG	-0.0893
GCGCCGTA	0.132
TCATGAGA	0.0706
CATGACGA	0.051
CAAAGGAG	-0.0938
ACGGTACA	-0.0496
AAGGGGGT	-0.219
AATGGTCG	-0.106
ATCCCGTC	0.0483
CAGTCCTC	-0.282
CCCTGCCC	-0.239
GCTTTGTA	0.316
ATTGCATG	0.239
CAAGCCGC	-0.136
AACGATCC	-0.242
AGTAAATG	0.314
ACTTTGAG	-0.0202
CGGGTCGA	-0.175
ACATGTGC	0.352
GATGCTGC	-0.159
ACGGATTG	-0.155
CCTACCGA	-0.229
AAAGGGTG	-0.0988

Sequence	PBM E-score
AACTACCG	-0.257
CTCGGAAG	-0.132
GACCTCTC	-0.0403
CTAGAGAC	-0.3
GGGGTTGA	-0.232
GATAAACC	-0.0176
AACATCGT	0.15
CGTTGGCA	-0.00267
GTTAGGCA	-0.00765
AATTACTC	0.281
CGCAATCC	-0.0707
ACTGTCAG	-0.0236
ACCGTGTG	0.113
GAGGTCTA	-0.0189
ACTCCTTC	-0.201
CGGCTTTC	-0.116
AGCTAGAG	-0.122
ACCCCTCT	-0.194
CGGTGTAC	0.0363
